# According to article PMC8408166:
# Amino acid sequences for entries named in this document (tags omitted). A change or cut given only in a name is not applied to a line headed by its entry. Chains listed by the source or under a name are the forms on record and can include a tag or linker. Residues count along the entry.
# UniProt O95863: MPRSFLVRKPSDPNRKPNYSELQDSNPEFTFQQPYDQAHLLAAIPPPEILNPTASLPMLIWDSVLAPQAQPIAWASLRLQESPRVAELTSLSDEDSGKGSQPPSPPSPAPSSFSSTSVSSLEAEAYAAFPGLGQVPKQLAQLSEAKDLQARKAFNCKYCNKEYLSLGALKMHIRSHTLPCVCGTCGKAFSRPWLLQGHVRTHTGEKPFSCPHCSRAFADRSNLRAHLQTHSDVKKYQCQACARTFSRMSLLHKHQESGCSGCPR
# UniProt Q9BQA1: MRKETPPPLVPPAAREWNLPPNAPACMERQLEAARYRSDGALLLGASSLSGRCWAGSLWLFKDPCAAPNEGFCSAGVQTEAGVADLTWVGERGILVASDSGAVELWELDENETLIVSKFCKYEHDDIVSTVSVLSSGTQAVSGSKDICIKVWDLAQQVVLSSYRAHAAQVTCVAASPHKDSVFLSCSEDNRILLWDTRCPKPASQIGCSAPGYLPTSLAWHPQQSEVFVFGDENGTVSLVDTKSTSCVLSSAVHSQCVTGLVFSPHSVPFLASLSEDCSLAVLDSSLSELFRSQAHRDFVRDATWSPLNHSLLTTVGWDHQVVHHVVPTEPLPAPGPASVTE
# UniProt O14744: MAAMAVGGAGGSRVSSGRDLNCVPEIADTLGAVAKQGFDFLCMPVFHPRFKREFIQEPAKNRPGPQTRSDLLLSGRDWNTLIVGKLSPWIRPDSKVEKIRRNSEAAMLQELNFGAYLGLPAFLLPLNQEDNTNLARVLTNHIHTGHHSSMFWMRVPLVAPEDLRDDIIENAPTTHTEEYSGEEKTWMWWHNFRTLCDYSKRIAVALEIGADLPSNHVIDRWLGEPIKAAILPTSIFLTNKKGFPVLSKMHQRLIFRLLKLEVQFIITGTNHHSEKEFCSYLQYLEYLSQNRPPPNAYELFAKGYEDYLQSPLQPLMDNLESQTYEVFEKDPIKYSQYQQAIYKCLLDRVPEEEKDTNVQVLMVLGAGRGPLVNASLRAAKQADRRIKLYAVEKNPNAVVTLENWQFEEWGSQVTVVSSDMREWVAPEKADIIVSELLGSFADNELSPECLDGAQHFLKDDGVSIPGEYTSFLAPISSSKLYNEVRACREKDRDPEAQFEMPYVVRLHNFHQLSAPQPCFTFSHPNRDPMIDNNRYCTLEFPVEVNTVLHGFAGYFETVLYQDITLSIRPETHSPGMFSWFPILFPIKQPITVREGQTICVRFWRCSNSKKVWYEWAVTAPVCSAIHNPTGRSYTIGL
# UniProt O94776: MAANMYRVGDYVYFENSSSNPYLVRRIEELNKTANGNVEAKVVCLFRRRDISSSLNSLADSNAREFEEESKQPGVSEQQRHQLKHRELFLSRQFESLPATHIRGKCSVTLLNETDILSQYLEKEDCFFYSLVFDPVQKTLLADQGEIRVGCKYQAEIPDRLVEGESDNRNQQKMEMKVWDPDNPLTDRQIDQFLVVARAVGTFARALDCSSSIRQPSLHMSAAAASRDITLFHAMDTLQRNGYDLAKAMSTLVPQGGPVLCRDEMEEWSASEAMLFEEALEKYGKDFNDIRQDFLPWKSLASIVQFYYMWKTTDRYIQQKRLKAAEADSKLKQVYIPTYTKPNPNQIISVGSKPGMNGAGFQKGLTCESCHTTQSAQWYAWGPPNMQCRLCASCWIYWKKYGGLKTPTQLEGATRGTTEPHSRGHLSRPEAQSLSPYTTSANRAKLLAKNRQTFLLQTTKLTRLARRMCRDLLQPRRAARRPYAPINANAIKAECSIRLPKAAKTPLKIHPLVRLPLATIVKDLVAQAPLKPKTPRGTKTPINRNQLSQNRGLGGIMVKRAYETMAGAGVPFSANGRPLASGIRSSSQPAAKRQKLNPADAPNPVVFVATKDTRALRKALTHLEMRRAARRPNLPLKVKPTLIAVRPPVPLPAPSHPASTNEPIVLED
# GST-fused middle region (SANT) of MTA2: residues 263-315 of O94776
# Results are given in words; binding and its absence hold for the method and conditions named. For part of these data: In cells and extracts the contact can be indirect. Some entries that bind do so weakly or less than the wild type. For part of these data: Where a sequence is shown, tags or fusion partners need not be part of it.
# Legend:
# [1] = target: Snail, endogenous (human (endogenous in HeLa, Ca Ski, SiHa)) (UniProt O95863); assay: co-IP; endogenous proteins; whole-cell lysates from HeLa, Ca Ski and SiHa cells; 500 ug extract with specific antibodies or normal IgG at 4 °C overnight, protein A/G Sepharose; washed with 50 mM Tris-HCl pH 7.4, 150 mM NaCl, 1 mM EDTA, 0.5% NP-40, 0.25% sodium deoxycholate; immunoblotting
# [2] = target: MTA1 (metastasis tumor antigen family protein 1), endogenous (human (endogenous in HeLa, Ca Ski, SiHa)) (UniProt Q13330); assay: co-IP; endogenous proteins; equal amounts of HeLa cellular extracts immunoprecipitated with antibodies against MTA1 or MTA3, immunoblotting
# [3] = target: T1, MTA3 (metastasis tumor antigen family protein 3), endogenous (human (endogenous in HeLa, Ca Ski, SiHa)) (UniProt Q9BTC8); assay: as above
# T1 sequence: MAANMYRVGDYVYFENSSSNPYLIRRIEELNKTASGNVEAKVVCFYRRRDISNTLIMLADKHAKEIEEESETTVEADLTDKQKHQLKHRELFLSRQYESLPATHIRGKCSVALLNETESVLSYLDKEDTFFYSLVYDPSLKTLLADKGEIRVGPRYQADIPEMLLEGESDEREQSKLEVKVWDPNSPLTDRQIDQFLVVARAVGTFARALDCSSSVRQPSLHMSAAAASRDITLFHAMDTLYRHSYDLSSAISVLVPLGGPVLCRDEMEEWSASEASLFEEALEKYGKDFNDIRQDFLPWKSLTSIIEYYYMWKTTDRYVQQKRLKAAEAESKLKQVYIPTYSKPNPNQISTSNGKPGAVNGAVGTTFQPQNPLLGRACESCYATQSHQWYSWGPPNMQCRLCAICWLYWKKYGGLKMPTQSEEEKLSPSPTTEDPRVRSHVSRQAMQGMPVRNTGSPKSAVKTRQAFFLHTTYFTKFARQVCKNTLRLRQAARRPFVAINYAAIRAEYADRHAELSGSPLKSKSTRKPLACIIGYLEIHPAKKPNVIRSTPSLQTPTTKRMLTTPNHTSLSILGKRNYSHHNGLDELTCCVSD
# [4] = target: MEP50, endogenous (human (endogenous in HeLa, Ca Ski, SiHa)) (UniProt Q9BQA1); assay: co-IP; endogenous proteins; whole-cell lysates from HeLa, Ca Ski and SiHa cells; 500 ug extract with specific antibodies or normal IgG at 4 °C overnight, protein A/G Sepharose; washed with 50 mM Tris-HCl pH 7.4, 150 mM NaCl, 1 mM EDTA, 0.5% NP-40, 0.25% sodium deoxycholate; immunoblotting
# [5] = target: Protein arginine methyltransferase 5 (PRMT5), endogenous (human (endogenous in HeLa, Ca Ski, SiHa)) (UniProt O14744); assay: as above
# [6] = target: Protein arginine methyltransferase 5 (PRMT5), endogenous (human (endogenous in HeLa, Ca Ski, SiHa)) (UniProt O14744); assay: SEC; co-fractionation by FPLC: HeLa nuclear extract (high-salt extraction; buffer D, 20 mM HEPES pH 8.0, 10% glycerol, 0.1 mM EDTA, 300 mM NaCl, 1 mM DTT) on Superose 6; fractions analysed by western blotting
# [7] = target: GST-fused middle region (SANT) of MTA2 (UniProt O94776); assay: pull-down; GST fusion protein (~10 ug, E. coli BL21 crude lysate) mixed with 5-8 uL in vitro transcribed/translated product in 0.8% BSA in PBS; glutathione-Sepharose 4B, 4 °C, 2 h; western blotting
# GST-fused Snail = GST-fused Snail (UniProt O95863); assay: as above
# GST-fused MTA1 = GST-fused MTA1 (UniProt Q13330); assay: as above
# [8] = target: GST-fused middle region (SANT) of MTA1 (UniProt Q13330); assay: as above
# [9] = target: T2, GST-fused middle region (SANT) of MTA3 (UniProt Q9BTC8); assay: as above
# T2 sequence: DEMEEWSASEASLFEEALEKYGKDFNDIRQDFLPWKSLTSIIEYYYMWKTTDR
# GST-fused MTA3 = target: T3, GST-fused MTA3 (UniProt Q9BTC8); assay: as above
# T3 sequence: T1 sequence
# GST-fused MTA2 = GST-fused MTA2 (UniProt O94776); assay: as above
# GST-fused PRMT5 = GST-fused PRMT5 (UniProt O14744); assay: as above
Substance,binding [1],binding [3],binding [7],binding (GST-fused MTA1),binding [8],binding (GST-fused MTA3),binding (GST-fused MTA2),other results
"MEP50, endogenous (from UniProt Q9BQA1 1-342)",binds,–,–,–,–,–,–,–
"Protein arginine methyltransferase 5 (PRMT5), endogenous (from UniProt O14744 1-637)",binds,binds,–,–,–,–,–,binding [2]: binds
"Snail, endogenous (from UniProt O95863 1-264)",–,no binding,–,–,–,–,–,binding [4]: binds; binding [5]: binds; binding [6]: binds
in vitro transcribed/translated PRMT5 (from UniProt O14744 1-637),–,–,binds,binds,binds,binds,binds,binding (GST-fused Snail): binds; binding [9]: binds
in vitro transcribed/translated Snail (from UniProt O95863 1-264),–,–,binds,binds,binds,no binding,binds,binding (GST-fused PRMT5): binds
